Values joined by “and” are separate entries in the source; they are usually repeats but may differ in a detail not shown here. Equal entries are not always repeated. In all, about 220,000 compounds went through this assay and about 16,000 (7.3%) were called active. This list was built around the results that the source calls inconclusive (neither active nor inactive); the mix of calls is not that of the screen. Calls come from the whole dose curve; as a rule, active = well fitted inhibition curve with a large enough effect (not every such curve was filed as active); inconclusive = small, poorly fitted or top-dose-only effect, or another doubt; inactive = no such curve, though single readings can be large or run the other way. Potencies of inconclusive entries are doubtful fits and often do not repeat.
Target: Aldehyde dehydrogenase 1A1 (Homo sapiens) (UniProt P00352)
Chain of UniProt P00352 (P00352 whole entry, looked up): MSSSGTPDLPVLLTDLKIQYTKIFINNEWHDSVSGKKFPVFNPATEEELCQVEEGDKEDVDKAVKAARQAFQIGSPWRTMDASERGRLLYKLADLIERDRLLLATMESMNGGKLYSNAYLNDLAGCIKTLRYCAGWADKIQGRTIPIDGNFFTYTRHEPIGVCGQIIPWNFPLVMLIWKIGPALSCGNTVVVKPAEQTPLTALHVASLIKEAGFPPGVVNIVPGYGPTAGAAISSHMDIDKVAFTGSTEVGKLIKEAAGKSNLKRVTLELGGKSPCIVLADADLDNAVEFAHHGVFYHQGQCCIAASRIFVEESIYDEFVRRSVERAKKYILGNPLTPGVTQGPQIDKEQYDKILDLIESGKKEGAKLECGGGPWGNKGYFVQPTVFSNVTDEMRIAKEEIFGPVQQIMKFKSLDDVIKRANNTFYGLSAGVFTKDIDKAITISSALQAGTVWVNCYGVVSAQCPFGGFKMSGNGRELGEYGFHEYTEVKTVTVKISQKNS
Assay: qHTS Assay for Inhibitors of Aldehyde Dehydrogenase 1 (ALDH1A1)
Settings: Purified ALDH1A1, NADH fluorescence, propionaldehyde substrate; series mostly up to 75.3 µM
Potency is the fitted concentration of half-maximal effect; tags give direction and shape of the fitted curve.

| Compound | Potency |
| --- | --- |
| C=CCOc1ccc(/C(O)=C2\C(=O)C(=O)N(CCOC)C2c2cccnc2)cc1 (stereo not drawn) | inconclusive: 39.8 µM [inhibitor, single point] |
| CCn1c(=O)n(-c2ccc(Cl)cc2)c(=O)c2c3c(sc21)COC(C)(C)C3 | inconclusive: 35.5 µM [inhibitor, single point] |
| CN(C)c1nc2sc3c(c2c(=O)n1C)CC(C)(C)OC3 | inconclusive: 28.2 µM [inhibitor, single point] |
| S=c1[nH]cc(-c2ccccc2)n1-c1ccccc1 | active: 3.16 µM |
| COc1ccc2c(c1)OC/C(=C/c1cccs1)C2=O | inconclusive: 31.6 µM [inhibitor, single point] |
| C=C(C)CNC(=S)NN=C1c2ccccc2-c2ccccc21 | inconclusive: 39.8 µM [inhibitor, single point] |
| O=C1[C@H]2CCC=C[C@H]2[C@H](c2ccccc2Br)N1Cc1ccccc1 | inconclusive: 35.5 µM [inhibitor, single point] |
| CCOC(=O)N1CCN(Cc2nc3c(c(=O)n(C)c(=O)n3C)n2Cc2ccccc2C)CC1 | active: 0.251 µM |
| CCN=c1scc(-c2ccccc2)n1/N=C/c1ccccn1 | inconclusive: 39.8 µM [inhibitor, single point] |
| O=C(O)Cc1ccc(NC(=O)c2cccc(NC(=O)c3ccco3)c2)cc1 | inconclusive: 35.5 µM [inhibitor, single point] |
| CC12CCC(C(=O)Nc3cc(Cl)ccc3Cl)(C(Br)C1=O)C2(C)C (stereo not drawn) | inconclusive: 14.1 µM [inhibitor, partial curve] |
| CCn1cc(C(=O)NCCC2=CCCCC2)c(=O)c2cc(S(=O)(=O)N(C)C)ccc21 | inconclusive: 28.2 µM [inhibitor, partial curve] |
| O=C(CSc1nnc(-c2ccc(Br)cc2)o1)N1CCN(C(=O)c2ccco2)CC1 | inconclusive: 39.8 µM [inhibitor, single point] |
| O=C1CN(C(=O)COC(=O)c2ccc(N3CCCCCC3)c([N+](=O)[O-])c2)c2ccccc2N1 | active: 7.94 µM |
| CC(C)c1cc(C(N)=O)c(NC(=O)c2cccc(COc3ccc(Br)cc3)c2)s1 | inconclusive: 22.4 µM [inhibitor, partial curve] |
| CCOc1ccc2[nH]c(=O)c(CN(Cc3ccco3)C(=O)c3cccc(F)c3)cc2c1 | inconclusive: 7.94 µM [inhibitor, full curve] |
| CCOC(=O)c1c(NC(=O)COc2ncnc3ccccc23)sc(C)c1CC | inconclusive: 39.8 µM [inhibitor, single point] |
| CCOC(=O)c1sc(N)c(C(=O)Nc2ccc(C)cc2C)c1C | active: 10 µM |
| COC(=O)C1=C(C)NC2=C(C(=O)C(C(=O)OC)C(c3ccc(OC)cc3)C2)C1c1ccccn1 (stereo not drawn) | inconclusive: 28.2 µM [inhibitor, partial curve] |
| Cc1oc(-c2cccc(C(F)(F)F)c2)nc1CN1CCOCC1 | inconclusive: 39.8 µM [inhibitor, single point] |
| Cc1noc(C)c1CSc1nnc2sc3ccccc3n12 | inactive |
| CCOC(=O)CC1C(=O)NCCN1S(=O)(=O)c1ccc(Br)cc1 (stereo not drawn) | inconclusive: 37.7 µM [inhibitor, single point] |

| Compound | Potency |
| --- | --- |
| COCCN1C(=O)c2ccccc2C(C(=O)N2CCN(c3ccccn3)CC2)C1c1ccc(F)cc1 (stereo not drawn) | inactive |
| CN(C)S(=O)(=O)c1cccc(COC(=O)C2=COCCO2)c1 | inconclusive: 35.5 µM [inhibitor, single point] |
| CC(=O)c1c(C)n(CC(=O)NCc2ccco2)c2ccccc12 | inactive |
| CCOc1ccc2cc(C(=O)c3ccccc3)c(=O)oc2c1 | inconclusive: 3.55 µM [inhibitor, full curve] |
| O=C(O)CCc1ccc(-c2cccs2)n1CC(=O)Nc1ccccc1C(F)(F)F | inactive |
| Cc1ccc(S(=O)(=O)NCc2ccc(C(=O)N3CCN(Cc4ccccc4)CC3)cc2)cc1 | active: 11.2 µM |
| COc1ccccc1C(=O)OCc1c(F)cccc1Cl | inactive |
| O=C(CSc1nc2[nH]ncc2c(=O)[nH]1)c1ccc(Cl)cc1 | active: 2.51 µM |
| COCCn1c(=O)c(-c2ccc(Cl)cc2)nc2cnc(OC)nc21 | inconclusive: 35.5 µM [inhibitor, single point] |
| COc1ccccc1N1CC(O)=C(c2nc3ccccc3c(=O)[nH]2)C1=N | inconclusive: 25.1 µM [inhibitor, partial curve] |
| O=c1c2c3c(sc2ncn1/N=C/c1ccncc1)CCCC3 | inconclusive: 39.8 µM [inhibitor, single point] |
| Cn1cc(C(F)(F)F)nc1-c1ccc(OCC(O)CNCCOc2ccc(O)c(C(N)=O)c2)cc1 (stereo not drawn) | inactive and inconclusive: 39.8 µM [inhibitor, single point] |
| FC(F)(F)c1ccccc1-c1cc(NCc2cccnc2)ncn1 | inactive |
| CCc1ccc(C(=O)CSc2n[nH]c(-c3ccncc3)n2)cc1 | inconclusive: 7.08 µM [inhibitor, partial curve] |
| N=c1sc2ccccc2n1CCS (tested in a mixture with another compound) | inconclusive: 3.55 µM [inhibitor, single point] |
| CCOC(=O)C1=C(N)Oc2c(c(=O)[nH]c3ccccc23)C1c1ccccc1 (stereo not drawn) | inactive |
| O=C1c2oc3ccc(Br)cc3c(=O)c2C(c2cccnc2)N1Cc1ccco1 (stereo not drawn) | inconclusive: 25.1 µM [inhibitor, single point] |
| COc1ccccc1N1CCN(Cc2nnnn2CCc2ccccc2)CC1 | inconclusive: 31.6 µM [inhibitor, single point] |
| CN(C)c1cccc2c1c(NC(=O)Nc1ccccc1)nn2C | inconclusive: 35.5 µM [inhibitor, single point] |
| CS(=O)(=O)Nc1cccc(-c2ccc3ncnc(NC4CCNCC4)c3c2)c1 | inconclusive: 39.8 µM [inhibitor, partial curve, poor fit] |
| COc1ccc(NC(=O)N(Cc2cc3ccc(OC)cc3[nH]c2=O)CC2CCCO2)cc1 (stereo not drawn) | inconclusive: 25.1 µM [inhibitor, single point] |
